Consider 40 molecules from the supplement of paper PMC9446081.

Hit rate of the full screen: of about 39,000 compounds, about 220 (0.56%) showed activity. The list shows a part of the results.
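Note: static incubation at 37 °C against the wild-type strain, values averaged over two biological replicates.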

The subject of this experiment is Escherichia coli K-12 BW25113. Put plainly: relative growth (OD600 normalised to plate interquartile mean) (fraction); higher = less growth inhibition, active = 0.2 or less. Particulars: 50 µM; LB; incubation time: overnight (16-24 h).
`C[C@H](CO)N1C[C@H](C)[C@H](CN(C)Cc2cncnc2)Oc2cc(C#CC3CCCC3)ccc2S1(=O)=O`: the relative growth is inactive: 1.01.

As for `COc1ccc(S(=O)(=O)Nc2ccc3c(c2)C(=O)N([C@H](C)CO)C[C@H](C)[C@H](CN(C)CC2CCCCC2)OCCCC[C@@H](C)O3)cc1`, the relative growth is inactive: 1.01.

`Clc1cccc(Cl)c1CSc1cccs1`: the relative growth is inactive: 0.987.

On to `COc1ccc(S(=O)(=O)Nc2ccc3c(c2)CC(=O)N([C@@H](C)CO)C[C@@H](C)[C@H](CN(C)C)O3)cc1`, for which the relative growth was inactive: 1.01.

With `C[C@H](NC(=O)C[C@@H]1C[C@H]2c3cc(NC(=O)Nc4ccc(C(F)(F)F)cc4)ccc3O[C@H]2[C@H](CO)O1)c1ccccc1`, the relative growth is inactive: 0.995.

Turning to `O=C(C[C@H]1C=C[C@H](NC(=O)c2cccnc2)[C@H](CO)O1)NCc1ccncn1`, the relative growth was inactive: 0.999.

For `COc1ccc(NC(=O)Nc2ccc3c(c2)C(=O)N([C@@H](C)CO)C[C@@H](C)[C@@H](CN(C)CC2CCCCC2)O3)cc1`, the relative growth is inactive: 0.986.

With `C[C@H](CO)N1C[C@H](C)[C@@H](CN(C)C(=O)Nc2ccc3c(c2)OCO3)Oc2c(NC(=O)Nc3ccc(C(F)(F)F)cc3)cccc2C1=O`, the relative growth was inactive: 0.912.

Take `COc1ccc([C@@H]2CC=CC[C@@H](C)Oc3ccccc3C(=O)N(C)[C@H](Cc3ccccc3)C(=O)N2)c(OC)c1`: the relative growth was inactive: 0.995.

Turning to `O=C(O)c1cccnc1C(=O)O`, the relative growth was inactive: 0.992.

On to `O=C1c2ccncc2C(=O)N1CN1CCOCC1`, for which the relative growth is inactive: 1.

As to `CCCNC(=O)N(C)C[C@@H]1Oc2cc(C#Cc3cccc(F)c3)ccc2S(=O)(=O)N([C@H](C)CO)C[C@H]1C`, the relative growth was inactive: 1.

Turning to `COc1ccc(NC(=O)N(C)C[C@H]2Oc3c(NS(=O)(=O)c4cn(C)cn4)cccc3C(=O)N([C@H](C)CO)C[C@@H]2C)cc1`, the relative growth is inactive: 1.01.

For the molecule `COC(=O)[C@H](Cc1c[nH]c2ccccc12)NC(=O)[C@H](CCCCCC(=O)[C@@H](C)O)NC(=O)OC(C)(C)C`, the relative growth is inactive: 0.983.

Turning to `CN(C)C(=O)C1CCNCC1`, the relative growth is inactive: 1.

For the molecule `C[C@H]1CN([C@@H](C)CO)C(=O)c2cccc(NC(=O)C3CCOCC3)c2O[C@H]1CN(C)Cc1ccc(-c2ccccc2)cc1`, the relative growth is inactive: 1.01.

As to `Cc1ccc(S(=O)(=O)N(C)C[C@H]2OCCCC[C@@H](C)Oc3ccc(NS(=O)(=O)c4ccc(Cl)cc4)cc3C(=O)N([C@H](C)CO)C[C@H]2C)cc1`, the relative growth was inactive: 1.04.

`Cc1noc(C)c1S(=O)(=O)N(C)C[C@@H]1Oc2ccc(NC(=O)NC(C)C)cc2CC(=O)N([C@@H](C)CO)C[C@@H]1C`: the relative growth is inactive: 1.01.

Regarding `Cc1noc(C)c1S(=O)(=O)N(C)C[C@H]1Oc2ccc(NC(=O)c3ccncc3)cc2CC(=O)N([C@H](C)CO)C[C@H]1C`, the relative growth was inactive: 0.949.

With `Cc1cc(=O)n2c(C)nnc2[nH]1`, the relative growth was inactive: 0.991.

On to `C[C@@H]1CN([C@H](C)CO)C(=O)c2cc(NC(=O)Nc3ccc(F)cc3)ccc2O[C@@H](C)CCCCO[C@H]1CN(C)Cc1ccc(C(F)(F)F)cc1`, for which the relative growth was inactive: 0.992.

As to `C[C@H](CO)N1C[C@H](C)[C@@H](CN(C)Cc2ccc(Cl)c(Cl)c2)Oc2ccc(NC(=O)Nc3ccccc3)cc2C1=O`, the relative growth is inactive: 0.995.

As to `CC1OC(OCC2OC(Oc3c(-c4ccc(OCCO)c(OCCO)c4)oc4cc(OCCO)cc(O)c4c3=O)C(O)C(O)C2O)C(O)C(O)C1O` (stereo not given), the relative growth is inactive: 1.05.

As to `CO[C@@H]1CN(C)C(=O)c2ccc(NC(=O)Nc3cccc(F)c3)cc2OC[C@@H](C)N(C(=O)Nc2c(C)noc2C)C[C@@H]1C`, the relative growth was inactive: 0.977.

For `C[C@H](CO)N1C[C@H](C)[C@H](CN(C)C(=O)Nc2ccc(F)cc2)OCCCC[C@H](C)Oc2ccc(NC(=O)C3CCC3)cc2C1=O`, the relative growth is inactive: 0.996.

Turning to `Cc1ccc(S(=O)(=O)N(C)C[C@@H]2Oc3c(NC(=O)Nc4cccc5ccccc45)cccc3C(=O)N([C@H](C)CO)C[C@H]2C)cc1`, the relative growth was inactive: 1.06.

Take `Cc1ccc(C(N)=S)c(=O)[nH]1`: the relative growth is inactive: 1.

On to `COc1ccc(S(=O)(=O)N(C)C[C@@H]2Oc3c(cccc3N(C)C)C(=O)N([C@@H](C)CO)C[C@@H]2C)cc1`, for which the relative growth is inactive: 0.895.

Consider `Cc1noc(C)c1S(=O)(=O)N(C)C[C@@H]1Oc2ccc(NS(=O)(=O)c3ccc(Cl)cc3)cc2C(=O)N([C@H](C)CO)C[C@@H]1C`, for which the relative growth is inactive: 1.01.

With `COc1cccc(NC(=O)N(C)C[C@H]2OCc3ccccc3-c3c(n(C)c4ccccc34)C(=O)N([C@H](C)CO)C[C@@H]2C)c1`, the relative growth was inactive: 0.974.

In the case of `C=CCOC(=O)[C@@H]1[C@H]2C(=O)O[C@H](c3ccccc3)[C@H](c3ccccc3)N2[C@H](c2ccc(OCCOC(=O)[C@@H]3C[C@@H]4C(=O)N5CCC[C@H]5C(=O)N4[C@@H]3c3ccc(O)cc3)cc2)[C@@]12C(=O)Nc1ccc(I)cc12`, the relative growth was inactive: 1.05.

Turning to `CNC[C@@H](O)Cn1cc(C)c(C(C)=O)c1C`, the relative growth is inactive: 0.984.

In the case of `C[C@@H]1CN([C@H](C)CO)C(=O)Cc2cc(NC(=O)c3ccncc3)ccc2O[C@@H]1CN(C)S(=O)(=O)c1ccccc1`, the relative growth was inactive: 0.995.

`CN(C)CCNC(=O)[C@@H]1CCS(=O)(=O)[C@H]2CN(C(=O)Nc3ccccc3)C[C@@H]12`: the relative growth was inactive: 1.01.

Turning to `C[C@@H]1CN([C@H](C)CO)C(=O)c2cc(-c3cccc(C#N)c3)cnc2O[C@H]1CN(C)C(=O)C1CCOCC1`, the relative growth is inactive: 0.982.

With `COc1ccc(S(=O)(=O)N(C)C[C@H]2OCCCC[C@@H](C)Oc3ccc(NC(=O)c4ccccc4)cc3C(=O)N([C@@H](C)CO)C[C@@H]2C)cc1`, the relative growth is inactive: 1.02.

Consider `O=C(C[C@@H]1C=C[C@@H](NC(=O)c2ccncc2)[C@@H](CO)O1)NCc1ccncn1`, for which the relative growth is inactive: 0.994.

On to `Cc1nc(N)c(C(=O)O)nc1C`, for which the relative growth was inactive: 1.03.

With `C[C@H]1CN([C@@H](C)CO)C(=O)c2cc(/C=C/c3ccccc3)cnc2O[C@H]1CN(C)C(=O)C1CCOCC1`, the relative growth was inactive: 1.01.

As for `CCN1[C@H](C(=O)NCCOC)[C@@H](CO)[C@@H]2Cn3c(ccc(-c4ccc(C(=O)N(C)C)cc4)c3=O)[C@@H]21`, the relative growth is inactive: 1.03.
